Results taken from PubChem BioAssay AID1347165 (National Center for Advancing Translational Sciences (NCATS), 2019).
Out of some 220,000 compounds screened, about 5,700 (2.6%) were called active. The inconclusive results got no clear call from the source; some entries with a clear call stand among them for comparison. Calls come from the whole dose curve; as a rule, active = well fitted inhibition curve with a large enough effect; inconclusive = small, poorly fitted or top-dose-only effect; inactive = no such curve, though single readings can be large or run the other way. A potency beside an inconclusive call is a rough fit, not a confirmed value.

Molecular target: Lysine-specific demethylase 5B (Homo sapiens) (UniProt Q9UGL1)
Assay: Primary screen for KDM5B Histone Demethylases FDH-coupled qHTS; note: nearly all actives have a fitted effect of over 70% in size; for activity change, negative = inhibition: 0% is about no effect
Details: FDH-coupled NADH fluorescence (FDH is formaldehyde dehydrogenase); activity change, negative = inhibition: at 57.7 µM (top of the series) unless noted
How it was run: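 Compound dilutions met 200 nM (final) KDM5BΔAP for 10 min at room temperature before substrate addition. The substrate mix held 12.5 µM H3K4me3 with cofactors 25 µM α-ketoglutarate and 50 µM Fe²⁺. NADH signal gain over 30 min defined activity.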
Potency is the fitted concentration of half-maximal effect; tags give direction and shape of the fitted curve.

UniProt Q9UGL1, sequence (Q9UGL1 whole entry, looked up): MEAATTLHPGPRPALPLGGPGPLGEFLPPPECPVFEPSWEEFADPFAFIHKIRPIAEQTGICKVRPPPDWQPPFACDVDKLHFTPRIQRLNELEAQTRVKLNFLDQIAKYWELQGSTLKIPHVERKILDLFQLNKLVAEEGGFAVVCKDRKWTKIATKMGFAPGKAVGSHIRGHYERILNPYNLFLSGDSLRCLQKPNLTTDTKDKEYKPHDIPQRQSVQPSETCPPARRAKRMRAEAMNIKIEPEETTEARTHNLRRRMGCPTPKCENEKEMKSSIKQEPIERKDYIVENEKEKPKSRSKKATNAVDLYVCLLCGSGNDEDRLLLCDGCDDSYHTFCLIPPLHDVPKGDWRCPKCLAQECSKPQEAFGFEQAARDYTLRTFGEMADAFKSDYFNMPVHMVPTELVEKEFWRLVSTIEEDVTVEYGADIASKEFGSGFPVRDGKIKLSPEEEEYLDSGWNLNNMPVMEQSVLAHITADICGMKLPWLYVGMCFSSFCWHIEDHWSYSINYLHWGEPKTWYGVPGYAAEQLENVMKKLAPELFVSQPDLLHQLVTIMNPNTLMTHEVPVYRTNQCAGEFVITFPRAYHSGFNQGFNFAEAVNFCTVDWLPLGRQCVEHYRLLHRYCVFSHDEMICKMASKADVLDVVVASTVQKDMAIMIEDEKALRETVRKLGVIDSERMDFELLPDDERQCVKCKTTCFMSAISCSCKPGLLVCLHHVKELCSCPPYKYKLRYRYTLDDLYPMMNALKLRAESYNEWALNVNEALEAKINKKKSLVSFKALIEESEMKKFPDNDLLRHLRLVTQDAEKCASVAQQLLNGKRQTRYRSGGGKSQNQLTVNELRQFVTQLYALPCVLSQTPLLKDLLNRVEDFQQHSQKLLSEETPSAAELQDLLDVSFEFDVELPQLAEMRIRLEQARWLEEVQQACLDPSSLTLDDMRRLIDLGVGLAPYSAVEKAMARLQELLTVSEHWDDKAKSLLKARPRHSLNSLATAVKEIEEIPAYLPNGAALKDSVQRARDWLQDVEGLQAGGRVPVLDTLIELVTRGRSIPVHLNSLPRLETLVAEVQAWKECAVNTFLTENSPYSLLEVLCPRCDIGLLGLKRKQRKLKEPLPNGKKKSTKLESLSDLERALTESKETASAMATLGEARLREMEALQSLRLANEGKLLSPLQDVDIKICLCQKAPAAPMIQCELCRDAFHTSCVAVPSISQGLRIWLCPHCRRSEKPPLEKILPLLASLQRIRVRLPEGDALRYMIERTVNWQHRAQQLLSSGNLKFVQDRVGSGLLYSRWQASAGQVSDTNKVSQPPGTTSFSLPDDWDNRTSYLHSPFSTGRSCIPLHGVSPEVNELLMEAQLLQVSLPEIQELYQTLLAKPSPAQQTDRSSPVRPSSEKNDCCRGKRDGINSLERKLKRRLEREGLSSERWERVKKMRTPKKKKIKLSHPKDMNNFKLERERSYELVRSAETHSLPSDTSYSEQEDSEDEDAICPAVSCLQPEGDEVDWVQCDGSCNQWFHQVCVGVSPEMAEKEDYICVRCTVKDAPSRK

SMILES | Potency | activity change, negative = inhibition
O=c1cc(-c2cccnc2)oc2c(-c3cccc(CO)c3)nccc12 | active: 35.5 µM | –
COCCN1C(=O)CO[C@H]2CN(S(C)(=O)=O)C[C@H]21 | inconclusive: 15.8 µM [inhibitor, partial curve, poor fit] | –
CCc1cccc(C)c1Nc1c(-c2ccc(N(C)C)cc2)nc2ncccn12 | inconclusive: 17.8 µM [inhibitor, partial curve, poor fit] | –
CN(C)CCNc1cc(-c2ccc3ccccc3n2)c2cc[nH]c2n1 | inconclusive: 14.1 µM [inhibitor, partial curve, poor fit] | –
Cc1ccc(C)c(CN2C(=O)c3ccccc3Sc3ccc(C(=O)NCc4ccco4)cc32)c1 | inconclusive: 15.8 µM [inhibitor, partial curve, poor fit] | –
Cc1cccc(OCc2ccc(-c3nc(C#N)c(N4CCN(c5ccccc5)CC4)o3)o2)c1 | inconclusive: 1.78 µM [inhibitor, full curve, poor fit] | –
COC(=O)c1ccc(COc2ccc3c4c(c(=O)oc3c2)CCCC4)o1 | inconclusive: 1.78 µM [inhibitor, partial curve, poor fit] | –
Cc1ccc(N(C(=O)c2snc(C(N)=O)c2N)C(CC(C)C)C(=O)NC2CCCC2)cc1 (centres undefined) | inconclusive: 22.4 µM [inhibitor, single point] | –
CCOc1ccccc1C(=O)NCc1nnc2cc(-c3nc(CC)no3)ccn12 | active: 28.2 µM | –
COc1cc(C2Nc3c(C)cc(C)cc3-c3cc(C)nn32)ccc1O (centres undefined) | inconclusive: 25.1 µM [inhibitor, partial curve, poor fit] | –
CCOC(=O)N1CCN(C(=O)CNC(=O)c2cc3c(OC)cc(OC)cc3n2C)CC1 | inconclusive: 31.6 µM [inhibitor, single point] | –
O=C(CCc1ccccc1Cl)NC1CCN(C2CC2)C1 (centres undefined) | – | inactive: 7.57%
COc1cccc(OCC(=O)NNC(=O)c2ccc3ccccc3c2O)c1 | inconclusive: 12.6 µM [inhibitor, partial curve, poor fit] | –
CCC(=O)Nc1cc(C(=O)NCc2ccc(C)cc2)ccc1S(=O)(=O)c1ccc(C)cc1 | inconclusive: 15.8 µM [inhibitor, partial curve, poor fit] | –
CC(C)Cn1c(COc2ccc(C(C)(C)C)cc2)n[nH]c1=S | inconclusive: 39.8 µM [inhibitor, single point] | –
Cc1cc(S(=O)(=O)Nc2cccc(-c3ccc(N4CCOCC4)nn3)c2)c(C)cc1Cl | – | inactive: -7.06%
NC(=O)c1c(/N=C/c2cccs2)sc2c1CCCC2 | inconclusive: 39.8 µM [inhibitor, single point] | –
O=C1c2c(nc(COc3cccc(F)c3)n2Cc2ccccc2)NCCN1CCOc1ccccc1 | inconclusive: 20 µM [inhibitor, single point] | –
O=Cc1cc(O)c(Br)cc1Br | inconclusive: 35.5 µM [inhibitor, partial curve, poor fit] | –
COc1cccc(NC(=O)CSc2nc(O)c(C/C=C/c3ccccc3)c(=O)[nH]2)c1 | inconclusive: 14.1 µM [inhibitor, partial curve, poor fit] | –

SMILES | Potency | activity change, negative = inhibition
CCc1cccc(NC(=O)Cn2nc(CC)n3c(cc4cc(C)ccc43)c2=O)c1 | inconclusive: 15.8 µM [inhibitor, partial curve, poor fit] | –
COc1ccc(C(=O)NC2(C(F)(F)F)C(=O)NC(C)=C2C#N)cc1 (centres undefined) | inconclusive: 39.8 µM [inhibitor, single point] | –
O=C(N/N=C/c1cc2c(cc1Cl)OCO2)c1ccc2c(c1)OCCO2 | inconclusive: 22.4 µM [inhibitor, single point] | –
Cc1ccc2c(c1)C(c1ccc(F)cc1)N(C(=O)C(C)C)CC(=O)N2 (centres undefined) | inconclusive: 35.5 µM [inhibitor, single point] | –
COc1ccc(Cn2c(SCC(=O)NCc3ccccc3)nc3ccccc32)cc1 | inconclusive: 15.8 µM [inhibitor, partial curve, poor fit] | –
Cc1cn2nc(C(=O)NCc3ccccn3)cc2c(=O)[nH]1 | inconclusive: 35.5 µM [inhibitor, partial curve, poor fit] | –
CCN1CCN(c2csc3ccc(Cl)cc3c2=O)CC1 | inconclusive: 25.1 µM [inhibitor, partial curve, poor fit] | –
Cc1cccc(NC(=O)CSc2nc(-c3cccs3)cc(C(F)(F)F)c2C#N)c1 | inconclusive: 35.5 µM [inhibitor, partial curve, poor fit] | –
CC(C)C[C@@H](N)C(=O)N1CCC2(CC1)Nc1ccccc1NC2=O | inconclusive: 25.1 µM [inhibitor, single point] | –
CC(NC(=O)c1ccc(NC(=O)C2CC2)s1)c1ccc(Cl)cc1 (centres undefined) | inconclusive: 15.8 µM [inhibitor, partial curve, poor fit] | –
O=C(NC1CCN(c2cc(-c3cccs3)[nH]n2)C1)c1ccc(F)c(F)c1 (centres undefined) | active: 12.6 µM | –
Nc1ccc(/C=C/c2ccccc2)cc1 | inconclusive: 28.2 µM [inhibitor, partial curve, poor fit] | –
CCN(CC)c1ccc(NC(=O)c2cc(CN3CCCC3)on2)c(C)c1 | inconclusive: 25.1 µM [inhibitor, single point] | –
O=C(Cn1ccc2ccccc21)Nc1ccc2c(c1)OCO2 | inconclusive: 39.8 µM [inhibitor, single point] | –
COc1cccc(CNC(=O)Nc2cc(C(=O)NCc3cccc(F)c3)ccc2N2CCCC2)c1 | inconclusive: 35.5 µM [inhibitor, partial curve, poor fit] | –
COc1ccc(-c2cc3c(=O)n(CCNC(=O)c4ccoc4)ccn3n2)cc1 | active: 20 µM | –
CC(C)C(CNC(=O)c1cc(-c2ccncc2)nc2ccccc12)N(C)C (centres undefined) | – | inactive: -23.7%
CCNC(=O)CCSc1nnc(-c2ccc(O)cc2)o1 | inconclusive: 50.1 µM [inhibitor, single point] | –
COC(=O)c1ccccc1NC(=O)Cn1c(-c2ccc(F)cc2)nc(C)cc1=O | inconclusive: 14.1 µM [inhibitor, partial curve] | –
